Results as given in PMC12136788.
The other results are listed elsewhere or left out.

T1: UNK ZnF1-3 (human, UniProt Q9C0B0 31-174)
T1 sequence: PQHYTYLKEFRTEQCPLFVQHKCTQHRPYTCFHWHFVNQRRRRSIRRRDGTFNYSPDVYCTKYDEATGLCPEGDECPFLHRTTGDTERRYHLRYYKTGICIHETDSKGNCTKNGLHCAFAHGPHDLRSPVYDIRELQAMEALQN

B1: chr8:117878989:117878990:-_ENSG00000164754_ENST00000297338|hu_hu|hu_hu_hu_mus_True|1_98 (ssRNA)
RNA: GGGAGUUCUACAGUCCGACGAUCCCAGAGGCCCUCGUUUACUGAGAACAAAAUGUGCGUAGAACAUUUUUCUUAUUUGCUAUGAAAUAAGAAGAAACCUGGAUCUCGGCGGGGAGCCGGGAGGGGUGGGUGGCCCGGGGGAGGCAACAGAGGAUUGAGCAUCA
B2: chr15:72338896:72338897:-_ENSG00000066933_ENST00000356056|hu_mus|FALSE|FALSE (ssRNA)
RNA: GGGAGUUCUACAGUCCGACGAUCGAUAUAUUCGCAAUGUGUGUUCAUUAUCCUCAAAGCGUCGUCUUCCUCCAUCACUUACAUUCAUAUUGGAUCUUGUCCCAUCAGAAAGGACAGUAUGUGGUCAGGACUGGGCAAACCAUUCAACAGAGGAUUGAGCAUCA
B3: 86629119_86633875_508_CDS_ENSG00000145715_ENST00000456692|human|control|control (ssRNA)
RNA: GGGAGUUCUACAGUCCGACGAUCUUGUUCAUCUGUUCUUAAAUUUGUAACCCACAUCCAUCCAUCUUCUAAUUCAUUAUGAACAAUGAACAUAUCUCCUUUUAAGAAACUUAUUUCAUCAGUGUCUGGUACUUUUGUGUAAGGCAACAGAGGAUUGAGCAUCA
B4: chr5:125867735:125867736:-_ENSMUSG00000008348_ENSMUST00000136312|mus_hu|FALSE|FALSE (ssRNA)
RNA: GGGAGUUCUACAGUCCGACGAUCGGUCUUACCAGUCAGGGUCUUCACGAAGAUCUGCAUCCCACCUCUGAGACGGAGCACCAGGUGCAGGGUAGACUCUUUCUGGAUGUUGUAGUCAGACAGGGUGCGCCCAUCUUCCAGCUGCAACAGAGGAUUGAGCAUCA
B5: chr17:46686077:46686078:-_ENSMUSG00000015605_ENSMUST00000015749|mus_hu|FALSE|FALSE (ssRNA)
RNA: GGGAGUUCUACAGUCCGACGAUCGCGGGCGGAUCAUUCACUCUUGGUGCUGUGGGCGGUGUCCAGGUUCACCACCUGUAGCUCGGUGAGGUUGCUGCUGCUCCCGGCCUGCUGCCCUAUCACAGCCAUCUGGUGGAGCUGAACCAACAGAGGAUUGAGCAUCA
B6: chr2:232319755:232319756:-_ENSG00000115053_ENST00000322723|hu_hu|FALSE|FALSE (ssRNA)
RNA: GGGAGUUCUACAGUCCGACGAUCAAAAGUUUAUAUGAAUAUCCAGUCAAAACCAACACGGUAUUGCCCUUGAAAUGUUAACUAGACGGAUUUCCAAGGAGACCACAGGACUGUAUACUGUCUUGGAAUGUCCUCAGAAGGCUCCAACAGAGGAUUGAGCAUCA

What follows are binders tested against T1, UNK ZnF1-3 (assay: nsRBNS (natural sequence RNA bind-n-seq); RBNS binding buffer (assumed for nsRBNS): 25 mM Tris pH 7.5, 150 mM KCl, 3 mM MgCl2, 0.01% Triton X-100, 500 ug/ml BSA, 20 U/ml SUPERase-In, 4 C; UNK is unkempt and MSI1 is Musashi-1; names of the RNAs are library labels; protein concentration not given here; high values mean tight binding).

| Binder | binding signal [enrichment R] |
| --- | --- |
| B1 | 1.38 |
| B2 | 1.05 |
| B3 | 0.791 |
| B4 | 0.796 |
| B5 | 0.625 |
| B6 | 0.763 |
